No constants are given. Whether binding was seen depends on the method and setting. In cells and extracts the contact can be indirect. Some binding calls cover weakened binding; strength is not graded here. For some assays here: Sequences can lack the tags named with a protein.

Amino acid sequences for entries named in this document (tags omitted).
UniProt P14635: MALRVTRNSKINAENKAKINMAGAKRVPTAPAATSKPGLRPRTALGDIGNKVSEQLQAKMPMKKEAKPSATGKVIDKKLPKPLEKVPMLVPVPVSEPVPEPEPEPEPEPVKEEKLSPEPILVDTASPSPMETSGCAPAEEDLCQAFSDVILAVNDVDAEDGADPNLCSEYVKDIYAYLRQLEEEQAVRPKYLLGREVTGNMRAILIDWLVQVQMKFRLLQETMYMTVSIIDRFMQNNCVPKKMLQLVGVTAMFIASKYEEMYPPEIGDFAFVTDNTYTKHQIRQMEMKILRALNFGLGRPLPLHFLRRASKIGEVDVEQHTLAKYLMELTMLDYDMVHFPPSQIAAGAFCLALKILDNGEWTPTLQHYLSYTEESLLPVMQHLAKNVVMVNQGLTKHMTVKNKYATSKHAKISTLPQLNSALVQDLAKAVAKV

From publication PMC7265330 come the findings set out here.

For assay [1], the target named is cyclin B1 (human (endogenous in HeLa)) (UniProt P14635). Briefly: co-IP; HeLa cells synchronised in G2 phase or mitosis (endogenous MAD1, or Flag-tagged MAD1 forms induced with tetracycline for 12 h); lysates in 0.5% NP-40, 140 mM NaCl, 10 mM KCl, 50 mM Hepes pH 7.2, 10% glycerol, 1 mM EDTA; anti-cyclin B1 (GNS1) on Protein G-Dynabeads, 1 h at 4°C; blotted with anti-MAD1 or anti-FLAG.

For assay [2], the target named is cyclin B1 (RPE cyclin B1-Venus+/−:Ruby-MAD2+/− cells) (human (endogenous in RPE1)) (UniProt P14635). The assay is described as follows: co-IP; RPE cyclin B1-Venus+/−:Ruby-MAD2+/− cells (parental, clones 7D2 and 8B12) enriched for G2 phase and mitosis; cyclin B1 immunoprecipitated, blotted with anti-MAD1.

B1: MAD1α (protein, UniProt Q9Y6D9-1 1-718)
chain: MEDLGENTMVLSTLRSLNNFISQRVEGGSGLDISTSAPGSLQMQYQQSMQLEERAEQIRSKSHLIQVEREKMQMELSHKRARVELERAASTSARNYEREVDRNQELLTRIRQLQEREAGAEEKMQEQLERNRQCQQNLDAASKRLREKEDSLAQAGETINALKGRISELQWSVMDQEMRVKRLESEKQELQEQLDLQHKKCQEANQKIQELQASQEARADHEQQIKDLEQKLSLQEQDAAIVKNMKSELVRLPRLERELKQLREESAHLREMRETNGLLQEELEGLQRKLGRQEKMQETLVGLELENERLLAKLQSWERLDQTMGLSIRTPEDLSRFVVELQQRELALKDKNSAVTSSARGLEKARQQLQEELRQVSGQLLEERKKRETHEALARRLQKRVLLLTKERDGMRAILGSYDSELTPAEYSPQLTRRMREAEDMVQKVHSHSAEMEAQLSQALEELGGQKQRADMLEMELKMLKSQSSSAEQSFLFSREEADTLRLKVEELEGERSRLEEEKRMLEAQLERRALQGDYDQSRTKVLHMSLNPTSVARQRLREDHSQLQAECERLRGLLRAMERGGTVPADLEAAAASLPSSKEVAELKKQVESAELKNQRLKEVFQTKIQEFRKACYTLTGYQIDITTENQYRLTSLYAEHPGDCLIFKATSPSGSKMQLLETEFSHTVGELIEVHLRRQDSIPAFLSSLTLELFSRQTVA
Regarding B1, in assay [1], the binding entry was “binds”.

B2: MAD1 E53K/E56K (RPE clones 7D2 and 8B12) (protein, UniProt Q9Y6D9 1-718)
chain: MEDLGENTMVLSTLRSLNNFISQRVEGGSGLDISTSAPGSLQMQYQQSMQLEKRAKQIRSKSHLIQVEREKMQMELSHKRARVELERAASTSARNYEREVDRNQELLTRIRQLQEREAGAEEKMQEQLERNRQCQQNLDAASKRLREKEDSLAQAGETINALKGRISELQWSVMDQEMRVKRLESEKQELQEQLDLQHKKCQEANQKIQELQASQEARADHEQQIKDLEQKLSLQEQDAAIVKNMKSELVRLPRLERELKQLREESAHLREMRETNGLLQEELEGLQRKLGRQEKMQETLVGLELENERLLAKLQSWERLDQTMGLSIRTPEDLSRFVVELQQRELALKDKNSAVTSSARGLEKARQQLQEELRQVSGQLLEERKKRETHEALARRLQKRVLLLTKERDGMRAILGSYDSELTPAEYSPQLTRRMREAEDMVQKVHSHSAEMEAQLSQALEELGGQKQRADMLEMELKMLKSQSSSAEQSFLFSREEADTLRLKVEELEGERSRLEEEKRMLEAQLERRALQGDYDQSRTKVLHMSLNPTSVARQRLREDHSQLQAECERLRGLLRAMERGGTVPADLEAAAASLPSSKEVAELKKQVESAELKNQRLKEVFQTKIQEFRKACYTLTGYQIDITTENQYRLTSLYAEHPGDCLIFKATSPSGSKMQLLETEFSHTVGELIEVHLRRQDSIPAFLSSLTLELFSRQTVA
For the molecule B2, the binding entry in assay [2] is “no binding”.

B3: MAD1 (parental RPE cells) (protein, UniProt Q9Y6D9 1-718)
chain: MEDLGENTMVLSTLRSLNNFISQRVEGGSGLDISTSAPGSLQMQYQQSMQLEERAEQIRSKSHLIQVEREKMQMELSHKRARVELERAASTSARNYEREVDRNQELLTRIRQLQEREAGAEEKMQEQLERNRQCQQNLDAASKRLREKEDSLAQAGETINALKGRISELQWSVMDQEMRVKRLESEKQELQEQLDLQHKKCQEANQKIQELQASQEARADHEQQIKDLEQKLSLQEQDAAIVKNMKSELVRLPRLERELKQLREESAHLREMRETNGLLQEELEGLQRKLGRQEKMQETLVGLELENERLLAKLQSWERLDQTMGLSIRTPEDLSRFVVELQQRELALKDKNSAVTSSARGLEKARQQLQEELRQVSGQLLEERKKRETHEALARRLQKRVLLLTKERDGMRAILGSYDSELTPAEYSPQLTRRMREAEDMVQKVHSHSAEMEAQLSQALEELGGQKQRADMLEMELKMLKSQSSSAEQSFLFSREEADTLRLKVEELEGERSRLEEEKRMLEAQLERRALQGDYDQSRTKVLHMSLNPTSVARQRLREDHSQLQAECERLRGLLRAMERGGTVPADLEAAAASLPSSKEVAELKKQVESAELKNQRLKEVFQTKIQEFRKACYTLTGYQIDITTENQYRLTSLYAEHPGDCLIFKATSPSGSKMQLLETEFSHTVGELIEVHLRRQDSIPAFLSSLTLELFSRQTVA
As for B3, the binding entry in assay [2] is “binds”.

B4: Flag-epitope tagged MAD1α (protein, UniProt Q9Y6D9-1 1-718)
chain: MEDLGENTMVLSTLRSLNNFISQRVEGGSGLDISTSAPGSLQMQYQQSMQLEERAEQIRSKSHLIQVEREKMQMELSHKRARVELERAASTSARNYEREVDRNQELLTRIRQLQEREAGAEEKMQEQLERNRQCQQNLDAASKRLREKEDSLAQAGETINALKGRISELQWSVMDQEMRVKRLESEKQELQEQLDLQHKKCQEANQKIQELQASQEARADHEQQIKDLEQKLSLQEQDAAIVKNMKSELVRLPRLERELKQLREESAHLREMRETNGLLQEELEGLQRKLGRQEKMQETLVGLELENERLLAKLQSWERLDQTMGLSIRTPEDLSRFVVELQQRELALKDKNSAVTSSARGLEKARQQLQEELRQVSGQLLEERKKRETHEALARRLQKRVLLLTKERDGMRAILGSYDSELTPAEYSPQLTRRMREAEDMVQKVHSHSAEMEAQLSQALEELGGQKQRADMLEMELKMLKSQSSSAEQSFLFSREEADTLRLKVEELEGERSRLEEEKRMLEAQLERRALQGDYDQSRTKVLHMSLNPTSVARQRLREDHSQLQAECERLRGLLRAMERGGTVPADLEAAAASLPSSKEVAELKKQVESAELKNQRLKEVFQTKIQEFRKACYTLTGYQIDITTENQYRLTSLYAEHPGDCLIFKATSPSGSKMQLLETEFSHTVGELIEVHLRRQDSIPAFLSSLTLELFSRQTVA
With B4, the binding result in assay [1] is listed as “binds”.

B5: MAD1-Flag (39-329aa), wild type (domain or fragment, UniProt Q9Y6D9 39-329)
chain: GSLQMQYQQSMQLEERAEQIRSKSHLIQVEREKMQMELSHKRARVELERAASTSARNYEREVDRNQELLTRIRQLQEREAGAEEKMQEQLERNRQCQQNLDAASKRLREKEDSLAQAGETINALKGRISELQWSVMDQEMRVKRLESEKQELQEQLDLQHKKCQEANQKIQELQASQEARADHEQQIKDLEQKLSLQEQDAAIVKNMKSELVRLPRLERELKQLREESAHLREMRETNGLLQEELEGLQRKLGRQEKMQETLVGLELENERLLAKLQSWERLDQTMGLSIR
Regarding B5, in assay [1], the binding result is reported as “binds”.
